Laboratory results: PubChem BioAssay AID1508623 (National Center for Advancing Translational Sciences (NCATS), 2021)
Hit rate of the full screen: of about 48,000 compounds, about 450 (0.94%) were called active. Inconclusive results (about 19%) are left out. The call rests on the fitted dose curve; in most records, active means well fitted inhibition curve with a large enough effect; inconclusive means small, poorly fitted or top-dose-only effect; inactive means no such curve, though single readings can be large or run the other way. The list shows a part of the results.

test: Primary qHTS for Identification of Small Molecule Inhibitors of Huntingtin Promoter Activity; settings: HEK293 HTT promoter firefly luciferase reporter (activity 0% = vehicle and -100% = no light), 24 h; series mostly up to 57.5 µM; activity change, negative = inhibition: at the top concentration; further: nearly all actives have a fitted effect of over 50% in size
In short: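 Firefly luciferase signal from promoter-reporter HEK293 cells was scaled between vehicle (0%) and zero RLU (-100%). Compounds were tested at final concentrations of up to 57.5 uM over 24 h at 37 degrees C. PTC124 at 50 uM final served as control inhibitor.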

Activity change, negative = inhibition, inactive:
CCc1ccc2oc(-c3cccc(NC(=O)COc4ccccc4Cl)c3)nc2c1 32.6%
CCOc1ccc(NC(=O)CSc2nc3ccsc3c(=O)n2CC)cc1 -27.7%
CCN(CC)C(=O)c1ccc2c(c1)N(Cc1ccccc1F)C(=O)c1ccccc1S2=O (configuration not stated) -1.87%
Cc1ccc(NC(=O)Cn2c(=O)nc(-c3ccccc3)c3ccccc32)cc1 -13.2%
CCCCOc1ccc(CNC(=O)c2cnc3sc(N4CCCCCC4)nn3c2=O)cc1 1.67%
CC(=O)OCCN1C(=O)c2c(C)nc3ccc(S(=O)(=O)N4CCOCC4)cc3c2C1=O 2.82%
Cc1cccc(C(=O)n2nc(-c3cccnc3)nc2NCc2ccc(F)cc2)c1 -36.6%
Cc1c(C(=O)NCc2cccc(F)c2)oc2c1-c1[nH]ncc1CC2 -8.23%
CC(C)CCNC(=O)c1cc(-c2ccc(Br)s2)nc2ccccc12 8.35%
Cn1c(=O)[nH]c(=O)c2c1nc(CN1CCN(c3ccccc3)CC1)n2Cc1c(F)cccc1Cl -13.5%
Cc1cccc(NC(=O)c2ccc3[nH]c(C)cc(=O)c3c2)c1 17.6%
CCC(=O)N1CCc2cc(S(=O)(=O)NC(Cc3ccccc3)C(=O)NCc3ccccc3OC)ccc21 (configuration not stated) -16.1%
CC(C)(C)c1ccc(C(=O)Nc2ccc(NC(=O)c3ccc(Cl)c(Cl)c3)cc2)cc1 -20.7% [at 11.5 µM]
COc1cccc(NC(=O)Nc2ccc3snnc3c2)c1 -7.75%
COc1ccccc1CNc1nc2ccccc2c2nc(-c3cccc(C)c3)nn12 25.7%
Cc1cccc(CCNC(=O)c2cc3c(=O)[nH]c4ccc(C)cc4c3s2)c1 -3.38%
Clc1ccc2c(c1)CCc1cccnc1C2=C1CCNCC1 -42.3%
COc1cc([N+](=O)[O-])ccc1NC(=O)N1CCC2(CC1)Nc1ccccc1-n1cccc12 -6.89%
CCn1cc(C(=O)NCCN(CC(C)C)CC(C)C)c(=O)c2cc(S(=O)(=O)N(C)C3CCCCC3)ccc21 -7.67%
COc1ccc(-c2nc3sc(CCNC(=O)C(=O)Nc4cc(F)ccc4F)c(C)n3n2)cc1 -9.68%
CCOCCCn1c(SCC(=O)NCc2ccccc2)nc2c(sc3ccccc32)c1=O -5.3%
CCCCOc1ccccc1Cn1c(=O)sc2ccccc21 -12.1%
Cc1cccc(NC(=O)CN(C)S(=O)(=O)c2ccc3c(c2)CCC(=O)N3)c1C -18.7%
CCOc1ccc(C(=O)Nc2cccc(NC(=O)c3ccc(Cl)cc3Cl)c2)cc1 -4.98%
O=C1NCC2(CCN(CCc3ccccc3)CC2)O1 9.92%
Cc1ccc(Nc2nc3ccccc3nc2-n2nc(C)cc2C)c(Cl)c1 -10.9%
CSc1ccc(CNC(=O)c2sc3ncnc(N(C)C4CCCCC4)c3c2C)cc1 -29.3%
